Source: US20030144473A1, “Peptides for the production of preparations for the diagnosis and therapy of autoimmun diseases” (priority 1992, published 2003)

Test system: autoantibodies (anti-histone IgG-autoantibodies) of rheumatic and SLE sera
Test: ELISA of patient sera on histone peptides (indirect ELISA, sera diluted 1 to 250)
Assay type: binding, human
Procedure: Dependent on the purpose of the test eltzher the antibody to be tested (in a direct ELISA or sandwich test) or the antigen (in an indirect ELISA) were bound to the surface of the microtitration plate. The antigens were dissolved with a concentration 50 μg/ml in a 0.05 M carbonate buffer, pH 9.7. Antibody solutions, supernatant liquid from cells and urine samples were diluted 1 to 3 in the same buffer and in each case 100 μl were pipetted onto the microtitration plate. Linking took place for 24 hours at 4° C. After emptying the dishes on the following day reactive groups of the microtitration plate were blocked at 36° C. with 250 μl of blocking solution per dish. For this different blocking solutions were employed: 0.5% (w/v) gelatins in PBS/azide; 1% (w/v) BSA in PBS/azide; 5% (w/v) BSA in PBS/azide; 10% (v/v) equine serum in PBS/azide. The additon was then made of 100 μl of cell culture supernatant liquid (primary antibodies) or, respectively, the 1 to 250 diluted sera with incubation for one hour at room temperature in the dark. […]
The results were evaluated as follows: an ELISA on a patient was only rated as positive if both extinctions>0.2 (cut off=0.2 from dummy measurements and correction factor in the case of stray values>0.2) and distinctly higher than the values in comparison with all other peptides.

How did the “epitope status for SLE autoantibodies” value (122 SLE sera tested in ELISA) turn out when “KPKAAKPKAAKPKAAKPKKAAPKKK (KPKAAKPKAAKPKAAKPKKAAPKKK) [H1-CT]” was run?
Its value is “preferred epitopes of SLE autoantibodies”.

And the “SLE sera / lupus patients reacting positively in ELISA” value (SLE sera (80 lupus patients), positive only if both extinctions >0.2 for H1 C terminus and H2B N terminus, sera 1 to 250)?
Its value is 80%.
